# Measured values reported in PubChem BioAssay AID686979 (National Center for Advancing Translational Sciences (NCATS), 2013).
# About 50,000 (12%) of roughly 420,000 compounds were called active. This list was built around the results that the source calls inconclusive (neither active nor inactive); the mix of calls is not that of the screen. Calls follow the shape of the dose curve; as a rule, active = well fitted inhibition curve with a large enough effect; inconclusive = small, poorly fitted or top-dose-only effect; inactive = flat fitted curve, though single readings scatter. Potencies of inconclusive entries are left out as doubtful fits.
# Assay: qHTS for Inhibitors of human tyrosyl-DNA phosphodiesterase 1 (TDP1): qHTS in cells in presence of CPT; also: nearly all actives have a fitted effect of over 55% in size
# Details: chicken DT40 Tdp1-/-;hTDP1 cells + 20 nM CPT, ATP luminescence, 48 h; activity change, negative = growth inhibition: at 46.2 µM (top of the series) unless noted
# Procedure, shortened: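 Cell growth measured by CellTiter-Glo luminescence after a minimum 48 h, 37 C compound exposure with 20 nM CPT in Tdp1-knockout DT40 cells stably expressing hTDP1, seeded 400/well; qHTS titration format.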
# % is scaled to controls: 0 for no effect and ±100 for the full control effect; potency is read from the fitted curve at half-maximal effect; tags tell the direction and shape of the fitted curve.
SMILES,Potency,"activity change, negative = growth inhibition"
Cc1cccn2c(Nc3ccccc3)c(-c3ccc(N4CCOCC4)cc3)nc12,"inconclusive [inhibitor, single point]",–
Cc1ccc(-n2c(=O)c3cccnc3n2CC(=O)Nc2cccc(C)c2C)cc1,"inconclusive [inhibitor, single point]",–
Cc1cccc(COC[C@H](Cc2ccccc2)N2CCN(C(=O)c3cccc(C)c3)CCC2=O)c1,"inconclusive [inhibitor, single point]",–
CCc1nc(N2CCCCC2)c2oc3ccccc3c2n1,"inconclusive [inhibitor, single point]",–
COCCCNC(=O)C1CCN(C(=O)c2cc3sccc3n2Cc2ccc(F)cc2)CC1,"inconclusive [inhibitor, partial curve]",–
Cc1ccc(C)c2c1CCCC2=O,inactive,–
CCCCCOC(=O)CSc1nc2c(c(=O)[nH]c(=O)n2C)n1CCc1ccccc1,"inconclusive [inhibitor, single point]",–
COc1ccc(NC(=O)NCc2ccccn2)c(OC)c1,inactive,–
O=C(CN1CCCCCC1)N1c2ccccc2Sc2ccccc21,inactive,–
C=CCNCCCOc1ccc(C(C)(C)c2ccccc2)cc1,"inconclusive [inhibitor, single point]",–
CN(C)S(=O)(=O)c1cc(NC(=O)COC(=O)CC2CC3CCC2C3)ccc1Cl (centres undefined),inactive,–
COCCSc1ccccc1C(=O)Nc1cc(C)cc(C)c1,"inconclusive [inhibitor, single point]",–
O=C(CCN1C(=O)/C(=C/c2ccccc2)SC1=S)NCCCN1CCOCC1,"inconclusive [inhibitor, single point]",–
OC(COCc1ccc(Cl)cc1)CN1CCc2ccccc2C1 (centres undefined),inactive,–
Cc1nn(-c2ccccc2)c(OC(=O)c2ccccc2F)c1S(=O)(=O)c1ccccc1,inactive,–
CN(C)c1nc2c(c(N)nn2-c2ccc(Cl)cc2)c(=O)o1,–,inconclusive: -32% [inhibitor]
S=c1[nH]nc(-c2ccco2)n1/N=C/c1ccc(Br)s1,"inconclusive [inhibitor, full curve, poor fit]",–
O=C(NNC(=S)NC(=O)c1ccccc1[N+](=O)[O-])c1ccc(Cl)cc1Cl,"inconclusive [inhibitor, single point]",–
CC1(c2nnnn2-c2ccc3c(c2)OCCO3)CCC(=O)N1Cc1cccnc1 (centres undefined),inactive,–
Cc1ccccc1S(=O)(=O)NC(=O)C1(C)CCN1C(=O)C(C)(C)c1ccccc1 (centres undefined),"inconclusive [inhibitor, partial curve]",–
COc1ccccc1C1CC(c2cccs2)=Nc2ccccc2S1 (centres undefined),"inconclusive [inhibitor, single point]",–
COc1cc(CN(C(=O)c2ccccc2[N+](=O)[O-])c2ccccn2)cc(OC)c1OC,"inconclusive [inhibitor, single point]",–

SMILES,Potency,"activity change, negative = growth inhibition"
Cc1ccc2cc(C(c3nnnn3Cc3ccccc3)N3CCc4ccccc43)c(=O)[nH]c2c1C (centres undefined),"inconclusive [inhibitor, single point]",–
Cc1ccc(C)c(NC(=O)CSc2nc(=O)n(CCN(C)C)c3c2CCC3)c1,inactive,–
Cc1ccccc1C(=O)N1CCC[C@@H]1C(=O)N1CCC[C@H]1C(=O)NCc1ccncc1,inactive,–
O=C(CCc1nnc2ccc(N3CCCC3)nn12)Nc1ccc(F)c(F)c1,inactive,–
CCCc1nc2c(C)cc(C)cc2c(N)c1CC,"inconclusive [inhibitor, single point]",–
COc1cccc(N2CCN(C(=O)c3cccc(NC(=O)c4nsc5ccccc45)c3)CC2)c1,"inconclusive [inhibitor, single point]",–
CCn1cc(CNC(=O)c2cc(-c3ccccc3OC)nc3ccccc23)c(C)n1,"inconclusive [inhibitor, single point]",–
Cc1ccc(-c2noc(CNc3ccccc3)n2)cc1,"inconclusive [inhibitor, single point]",–
CCCN(Cc1nnc(-c2ccccc2Cl)o1)C(=O)c1ccc(C)c(S(=O)(=O)N2CCOCC2)c1,"inconclusive [inhibitor, single point]",–
Cc1ccc(Cn2c(C3CCCN3c3nc(-c4ccc(F)cc4)cs3)nc3cc(C(=O)NCCCO)ccc32)cc1 (centres undefined),active: 20.6 µM,–
CCN(CC)S(=O)(=O)c1ccc2c(c1)nc(CN(C)C(=O)c1cccc(Cl)c1)n2C,"inconclusive [inhibitor, single point]",–
COc1ccc(CCNC(=O)C2=C(C)C(=O)OC23CCCCC3)c(OC)c1OC,"inconclusive [inhibitor, single point]",–
OCCC1CN(Cc2nc(-c3ccc(F)cc3)cs2)CCN1CCc1ccccc1 (centres undefined),"inconclusive [inhibitor, single point]",–
CCc1nnc(NC(=O)c2ccc(S(=O)(=O)N(C)Cc3ccccc3)cc2)o1,active: 16.4 µM,–
COC(=O)N1CCC2(CCCN(C(=O)Nc3ccccc3)C2)CC1,inactive,–
CCc1ccc2[nH]c3nc(N/N=C/c4ccc(O)cc4O)nnc3c2c1,"inconclusive [inhibitor, single point]",–
FC(F)(F)c1ccccc1Cc1c(C2CCCCC2)nc2ccc(Br)cn12,"inconclusive [inhibitor, single point]",–
COc1ccc(/C(O)=C2\C(=O)C(=O)N(Cc3ccco3)C2c2ccc(OC)cc2OC)cc1 (centres undefined),active: 29.1 µM,–
COc1cc(Cl)c(C)cc1NC(=O)c1cc(CN2CCOCC2)on1,"inconclusive [inhibitor, single point]",–
Cn1ccnc1C(=O)C1CCCN(Cc2cn[nH]c2-c2ccc(-c3ccccc3)cc2)C1 (centres undefined),"inconclusive [inhibitor, single point]",–
CCOc1ccc(C(=O)NCC(c2cccs2)N(C)C)cc1 (centres undefined),–,inconclusive: -31.7% [inhibitor]
O=C(CN1CCN(Cc2ccccc2)CC1)NCc1ccccc1Cl,–,inconclusive: -32.9% [inhibitor]
